Measurements as given in the supplement of paper PMC3334620.
Over roughly 33,000 sequences, “E-score (-0.5 to 0.5)” has its median near -0.01; the highest 2% begin near 0.26. The list shows a part of the results.

Each sequence was assayed against Ste12 (UniProt P13574) (assay: PBM E-score (8-mer binding enrichment) (E-score (-0.5 to 0.5)); higher = stronger / more preferred TF binding; most listed sequences are background and not binding sites). Conditions: protein concentration: 200 nM; construct: GST-DNA-binding domain.
Procedure, shortened: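 E-scores (a modified Wilcoxon-Mann-Whitney statistic) were assigned by the Universal PBM Analysis Suite to every ungapped eight-base word pooled with its reverse complement. The input came from universal all-10-mer Agilent arrays made double-stranded by primer extension and probed with GST-tagged yeast transcription factors at about 100-200 nM. Fluorescent anti-GST detected bound protein, and masliner normalised the scans.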

In order of falling “PBM E-score” value:
1. AGTTTCAC  0.338
2. AATACAAG  0.302
3. GCCGCGGC  0.29
4. CCTCCCCG  0.283
5. CCTTATCG  0.258
6. CATATCAA  0.228
7. ATTTTCAG  0.223
8. ATTTTTCA  0.222
9. CTCGAAAC  0.215
10. CAAATACA  0.212
11. ACATTAAT  0.211
12. CAGATTCG  0.193
13. ATAATCGA  0.193
14. AACCGAGA  0.189
15. CAGTTTCG  0.181
16. GCTTCATA  0.173
17. TCCCCTAA  0.167
18. CTTTTGCA  0.166
19. AAATTCAG  0.165
20. AAACAGCG  0.158
21. CATTGCAC  0.151
22. AAAAACTT  0.146
23. AACTCGTA  0.143
24. AAGCAAAA  0.142
25. GGGTTAAA  0.142
26. CAGTTCCC  0.142
27. CAATTCCC  0.138
28. AATCATGA  0.136
29. ATAACCCA  0.136
30. AGAGCCGA  0.135
31. CACCCAAA  0.132
32. AAAATGAC  0.121
33. AGGTGAGA  0.121
34. ATCCAGAG  0.12
35. TCAAGACA  0.117
36. AAATACTG  0.114
37. AAGCTGTA  0.113
38. AGCCGAAT  0.109
39. CGATCAAA  0.105
40. TCGACAAA  0.105
41. ATCATGGA  0.102
42. ACTTCCGC  0.102
43. CTATTGCA  0.0988
44. CCATCGAA  0.0948
45. CTAATTTC  0.0923
46. GGATATTA  0.092
47. CAAATAGA  0.0902
48. AACGCACA  0.09
49. CAACTCAG  0.0872
50. CTCCCCAC  0.0871
51. AGGTACGC  0.0829
52. ACCTTACG  0.0785
53. AAGTTTGC  0.0723
54. ATTTCCTC  0.0672
55. GGCTATTA  0.0659
56. GGTGACAC  0.0658
57. TGCGTCAA  0.0654
58. AGGAATTA  0.0644
59. CTAGTACA  0.0611
60. ATCCGAAC  0.0597
61. GTCGGAGA  0.0578
62. AAGTCAGG  0.0527
63. ACGTGATG  0.0516
64. ACCGTCGC  0.0497
65. ACTGCGCG  0.0441
66. CTCAGGAG  0.0425
67. ACCAGATG  0.0388
68. TCGCACGA  0.0351
69. AATAAAAG  0.035
70. CGAGAAAG  0.0304
71. TACGTACA  0.0295
72. AGTAATGC  0.0246
73. CTCTGTGA  0.0231
74. AGAAGAGA  0.0223
75. ATCGATCC  0.021
76. TAGAGAAA  0.0197
77. AGCTGTTA  0.0174
78. ATGGCGCG  0.017
79. TCGCAAGA  0.0142
80. ACGTATTC  0.00997
81. GTGCAAAA  0.009
82. CTTCAATC  0.00697
83. ATTCGTAG  -0.00086
84. CCAAGTCA  -0.00159
85. ACGCATAC  -0.00196
86. CGAGCAGA  -0.00418
87. ACCACGAA  -0.00575
88. CCGCCCCC  -0.00614
89. GTAAACCA  -0.00688
90. CAAACAGG  -0.00741
91. GAACCACC  -0.0119
92. ATGCTTGG  -0.0132
93. AACCTAGC  -0.0149
94. TAACCGCA  -0.018
95. CCGTGCGC  -0.0188
96. CAGTTGGG  -0.0209
97. GTACAAGA  -0.0216
98. GCGACCGA  -0.0219
99. GATTGTCA  -0.034
100. CATGATGC  -0.0362
101. CCAGACCC  -0.0377
102. GTGGACGA  -0.0401
103. CTACGAGA  -0.0402
104. GGTAAGAA  -0.0428
105. GCAGCCCC  -0.0443
106. AGTTTGGC  -0.0448
107. CACACGGG  -0.0448
108. CTTGACGC  -0.0472
109. CAGACTAG  -0.0565
110. AAGATAGA  -0.0583
111. CAAGTATA  -0.0597
112. AACTTCCC  -0.0625
113. AGAACCCT  -0.0638
114. CTTCTGTA  -0.0644
115. AATGGAGC  -0.0645
116. CAGGTATA  -0.0647
117. TCCAGGAA  -0.0739
118. AGAGTGGG  -0.0757
119. ACTGCTGC  -0.0761
120. CTGTGGGA  -0.0833
121. AAGAAGTC  -0.0846
122. CGCTGGAC  -0.0892
123. CTAGCGGA  -0.0933
124. AACGTCGG  -0.0934
125. GCTAGCCC  -0.0936
126. CGCAGTCA  -0.0938
127. ACCAATAA  -0.0945
128. CCTGCTCC  -0.0949
129. CGCTCTGC  -0.0953
130. CACGCGGG  -0.0962
131. ATAGCTTA  -0.0978
132. AGAGAGAG  -0.102
133. ACCCTCGA  -0.104
134. AGGCGCCA  -0.107
135. CATACGGG  -0.108
136. TCCGACGA  -0.109
137. CGCTAGGC  -0.112
138. ACATGACT  -0.112
139. AGCTTTCC  -0.112
140. ACGGCTGC  -0.113
141. CTGCGTAA  -0.119
142. CTCCTAGA  -0.119
143. AGTCAGCG  -0.121
144. AGGAGACC  -0.122
145. CACGGAGG  -0.133
146. CGGGCCCC  -0.136
147. CCGTTGGA  -0.136
148. CGTGTGCC  -0.139
149. AACGCTGG  -0.14
150. CCGAGGGA  -0.141
151. AGATGCAT  -0.141
152. GGTCCGAC  -0.142
153. ATCCTCTA  -0.148
154. CGTACCAA  -0.151
155. CAGCTCCA  -0.152
156. CACCAGTG  -0.159
157. GCGATAGC  -0.161
158. CGAGGCTC  -0.172
159. GGCCCCAA  -0.177
160. CCATAGGA  -0.187
161. ACCAGCTG  -0.191
162. ATGGCTAG  -0.194
163. ATTGAGCA  -0.194
164. AAGAGGAG  -0.196
165. CATAGCGG  -0.207
166. ACTTGCGG  -0.213
167. CATGCGCG  -0.235
168. ACCTGTGG  -0.239
169. CGGAGGGC  -0.241
170. CAGCGGGC  -0.266
171. GCTTCGCC  -0.298
172. GGGACTCA  -0.328
